Out of some 270,000 compounds screened, about 620 (0.23%) were called active. The inconclusive results got no clear call from the source; some entries with a clear call stand among them for comparison. The call rests on the fitted dose curve; in most records, active means well fitted inhibition curve with a large enough effect in the polarisation, with a control signal flat (not every such curve was filed as active); inconclusive means small, poorly fitted or top-dose-only effect, or effect the other way, or a change in a side signal; inactive means no such curve, though single readings can be large or run the other way; the % refers to the polarisation. Where the call is inconclusive, the potency comes from a doubtful curve fit. “Side channel” marks fits to a control or component signal instead of the main read-out.
target: Menin (Homo sapiens) (UniProt O00255); assay: qHTS Assay for Inhibitors Targeting the Menin-MLL Interaction in MLL Related Leukemias: Competition With Texas Red Labeled MLL-derived Mutant Peptide; conditions: fluorescence polarization; FP activity change, negative = inhibition: at 61.6 µM (top of the series); on FP activity change, negative = inhibition: % of control where 0% means no effect
Potency means the concentration at half of the fitted maximal effect; tags describe the fitted curve by direction and shape or compound fluorescence and quenching.

Chain of UniProt O00255 (O00255 whole entry, looked up): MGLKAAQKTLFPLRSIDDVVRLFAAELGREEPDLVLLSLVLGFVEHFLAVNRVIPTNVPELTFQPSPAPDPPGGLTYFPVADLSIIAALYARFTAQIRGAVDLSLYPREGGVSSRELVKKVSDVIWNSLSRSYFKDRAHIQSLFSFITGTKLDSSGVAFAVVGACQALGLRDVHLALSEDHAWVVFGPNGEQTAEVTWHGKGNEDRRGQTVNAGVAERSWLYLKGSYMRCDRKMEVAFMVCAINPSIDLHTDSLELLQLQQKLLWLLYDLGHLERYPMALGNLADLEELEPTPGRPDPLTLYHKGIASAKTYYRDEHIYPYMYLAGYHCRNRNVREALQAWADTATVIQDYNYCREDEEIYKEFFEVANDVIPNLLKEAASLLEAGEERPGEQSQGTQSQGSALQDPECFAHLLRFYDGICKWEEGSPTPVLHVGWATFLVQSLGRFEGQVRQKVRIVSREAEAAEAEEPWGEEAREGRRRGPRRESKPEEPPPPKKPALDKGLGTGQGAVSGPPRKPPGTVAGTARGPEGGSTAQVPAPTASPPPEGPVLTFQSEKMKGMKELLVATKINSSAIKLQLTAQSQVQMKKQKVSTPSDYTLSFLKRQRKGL

Q: Which Potency does the source give for `CN(C)c1ccc(-c2noc(C3CCN(S(=O)(=O)c4cccc(C(=O)O)c4)CC3)n2)cc1` here?
A: inconclusive: 28.2 µM [quencher, side channel, single point]

Q: How did the Potency turn out when `COc1ccc(NC(=O)/C=C/c2ccc(Br)o2)cn1` was run?
A: inconclusive: 25.1 µM [quencher, side channel, single point]

Q: For `COc1ccc(NC(=O)c2cc(-c3ccc(C)c(C)c3O)n[nH]2)cc1Cl`, which Potency is on record?
A: inconclusive: 10 µM [quencher, side channel, partial curve]

Q: How did the Potency turn out when `CC1CC(C)CN(C(=O)C2CCC(CNS(=O)(=O)c3ccccc3)CC2)C1` (configuration not stated) was run?
A: inconclusive: 7.94 µM [fluorescent, side channel, partial curve]

Q: With `CC(=O)c1ccc(N2CCN(C(=O)Nc3ccc(F)cc3)CC2)cc1` as the molecule, how does the “FP activity change, negative = inhibition” value read?
A: inactive: -25.1%

Q: Which Potency does the source give for `CCOc1ccc(-n2c(SC)nc3c(c2=O)SCC3)cc1` here?
A: inconclusive: 0.708 µM [inhibitor, full curve, poor fit]

Q: `Cc1c(N=C2Nc3cccc4cccc2c34)c(=O)n(-c2ccccc2)n1C` was tested. Which Potency did it give?
A: inconclusive: 31.6 µM [quencher, side channel, single point]

Q: With `COC(=O)c1cc2c(ccn2-c2ccc(F)cc2)n1CC(=O)N1CCN(C(=O)c2ccco2)CC1` as the molecule, how does the Potency read?
A: inconclusive: 1 µM [inhibitor, full curve]

Q: Which “FP activity change, negative = inhibition” value does the source give for `C=CCn1c(=O)c(C(C)=O)cn(N(C)c2ncc(C(F)(F)F)cc2Cl)c1=O` here?
A: inactive: -3.55%

Q: How did the Potency turn out when `Cc1cc(C)cc(N2CCCn3c2nc2c3c(=O)n(CC(=O)OCc3ccccc3)c(=O)n2C)c1` was run?
A: inconclusive: 5.01 µM [fluorescent, side channel, full curve]

Q: `Nc1cc(-c2ccc(Br)cc2)[nH]n1` was tested. Which Potency did it give?
A: inconclusive: 39.8 µM [quencher, side channel, single point]

Q: Which Potency does the source give for `CCCCNC(=S)Nc1ccc(SC(F)F)cc1` here?
A: inconclusive: 12.6 µM [quencher, side channel, partial curve]

Q: With `CCN(CC)S(=O)(=O)c1ccc(N=NC2=C(O)CC(C)(C)CC2=O)cc1` as the molecule, how does the “FP activity change, negative = inhibition” value read?
A: inactive: 12.9%

Q: With `S=C(Nc1ccc(Nc2ccccc2)cc1)Nc1ccccn1` as the molecule, how does the Potency read?
A: inconclusive: 11.2 µM [quencher, side channel, partial curve]

Q: How did the “FP activity change, negative = inhibition” value turn out when `COC(=O)CCCC[C@H]1SC[C@H]2NC(=O)N[C@]21O` was run?
A: inactive: 3.97%

Q: `Cc1nc(CNS(=O)(=O)c2cccc(F)c2)cs1` was tested. Which “FP activity change, negative = inhibition” value did it give?
A: inactive: -17.3%

Q: Which Potency does the source give for `COC(=O)C1=C(O)C(C(=O)OC)C(c2ccc(C)cc2)C(C#N)(C#N)C1c1ccc(C)cc1` (configuration not stated) here?
A: inconclusive: 12.6 µM [inhibitor, single point]

Q: How did the Potency turn out when `COc1cccc(-c2ccc(C#N)c(SCC(=O)NCc3ccco3)n2)c1` was run?
A: inconclusive: 35.5 µM [fluorescent, side channel, partial curve]

Q: Which “FP activity change, negative = inhibition” value does the source give for `CCCCc1ccc(NC(=S)N2CCC(O)CC2)cc1` here?
A: inactive: -0.417%

Q: How did the Potency turn out when `COc1ccc(/C=C/c2c(-c3ccc(OC)cc3)oc3ccccc23)cc1` was run?
A: inconclusive: 10 µM [quencher, side channel, partial curve]

Q: `CCOc1ncccc1C(=O)N1CCN(c2cc(Cl)ccc2C)CC1` was tested. Which Potency did it give?
A: inconclusive: 5.62 µM [inhibitor, partial curve]

Q: How did the Potency turn out when `COc1ccccc1-c1coc2cc(OC(=O)/C=C/c3ccccc3)ccc2c1=O` was run?
A: inconclusive: 25.1 µM [fluorescent, side channel, single point]

Q: With `CCN=c1scc(C)n1/N=C/c1cc(Br)c(O)c(OC)c1` as the molecule, how does the Potency read?
A: inconclusive: 3.55 µM [quencher, side channel, full curve]

Q: For `Cc1ccc(S(=O)(=O)CCSc2cccc(C(=O)Nc3ccccc3C(=O)O)c2)cc1`, which Potency is on record?
A: inconclusive: 25.1 µM [quencher, side channel, partial curve, poor fit]

Q: How did the “FP activity change, negative = inhibition” value turn out when `COc1cc(C(=O)NCc2cc3cc(Cl)ccc3n2C)cc(OC)c1OC` was run?
A: inactive: 2.93%

Q: For `Cc1ccc(NC(=O)N2CCC(C(=O)c3ccc(F)cc3)CC2)cc1`, which “FP activity change, negative = inhibition” value is on record?
A: inactive: 8.55%

Q: `O=C(C/C=N\OCc1ccc([N+](=O)[O-])cc1)Nc1ccc(Cl)cc1` was tested. Which Potency did it give?
A: inconclusive: 39.8 µM [quencher, side channel, single point]

Q: Which Potency does the source give for `CS(=O)(=O)N(CC(=O)NCCSC1CCCCC1)c1ccc2c(c1)OCO2` here?
A: inconclusive: 1.58 µM [inhibitor, partial curve]

Q: How did the Potency turn out when `O=C(Cn1ccc(C(F)(F)F)n1)N=Nc1c(O)[nH]c2ccc(Br)cc12` was run?
A: inconclusive: 35.5 µM [quencher, side channel, single point]

Q: With `O=[N+]([O-])c1ccccc1-c1cc(-c2ccccc2O)n[nH]1` as the molecule, how does the Potency read?
A: inconclusive: 25.1 µM [quencher, side channel, partial curve]

Q: `Cc1ccc(/C=N/NC(=O)c2nnn(-c3nonc3N)c2CSc2ccccc2)s1` was tested. Which Potency did it give?
A: inconclusive: 39.8 µM [inhibitor, single point]

Q: How did the “FP activity change, negative = inhibition” value turn out when `COc1cc(OC)cc(OC)c1` was run?
A: inactive: -5.06%

Q: `COc1cccc(C(c2nnnn2Cc2ccco2)N2CCN(Cc3ccccc3)CC2)c1OC` (configuration not stated) was tested. Which Potency did it give?
A: inconclusive: 0.708 µM [inhibitor, full curve]

Q: How did the “FP activity change, negative = inhibition” value turn out when `Cc1ccccc1NC(=O)NCC1CCCO1` (configuration not stated) was run?
A: inactive: -5.28%

Q: How did the Potency turn out when `O=C(NCc1cccnc1)C1CCCN(S(=O)(=O)c2ccc(Br)cc2)C1` (configuration not stated) was run?
A: inconclusive: 31.6 µM [inhibitor, single point]

Q: For `CN(C)S(=O)(=O)c1ccc(C(=O)NCC(C)(C)CN=C2NS(=O)(=O)c3ccccc32)cc1`, which Potency is on record?
A: inconclusive: 39.8 µM [inhibitor, single point]

Q: Which Potency does the source give for `CCCn1c(NC(=O)c2cccc(S(=O)(=O)N3CCCC3)c2)nc2ccccc21` here?
A: inconclusive: 31.6 µM [quencher, side channel, single point]

Q: With `CC(=O)c1cccc(NC(=O)CCn2c(=S)oc3ccccc32)c1` as the molecule, how does the Potency read?
A: inconclusive: 7.94 µM [inhibitor, partial curve]

Q: For `COC(=O)C1CCN(c2cc(=O)n(-c3ccccc3Cl)c(=O)[nH]2)CC1`, which Potency is on record?
A: inconclusive: 39.8 µM [inhibitor, single point]

Q: How did the “FP activity change, negative = inhibition” value turn out when `Cc1ccc(N(C(=O)c2snc(C(N)=O)c2N)C(C(=O)NC2CCCC2)c2ccc(C)o2)cc1` (configuration not stated) was run?
A: inactive: 6.36%

Q: With `NC(=O)c1cc2ccccc2o/c1=N/NC(=O)c1cccs1` as the molecule, how does the “FP activity change, negative = inhibition” value read?
A: inactive: -4.35%

Q: Which Potency does the source give for `CCOC(=O)NC(=O)/C(C#N)=N\Nc1ccc(Cl)cc1` here?
A: inconclusive: 14.1 µM [quencher, side channel, partial curve]

Q: With `COCC(C)NC(=O)/C(=C/c1ccccc1)c1ccccc1` (configuration not stated) as the molecule, how does the Potency read?
A: inconclusive: 10 µM [fluorescent, side channel, partial curve]

Q: `CCOC(=O)c1c(NC(C)=O)sc(/C(C)=N/Nc2ccc(C(=O)O)cc2)c1C` was tested. Which Potency did it give?
A: inconclusive: 22.4 µM [quencher, side channel, single point]

Q: With `CCOC(=O)CC(NC(=O)C1c2ccccc2Oc2ccccc21)c1ccccc1Cl` (configuration not stated) as the molecule, how does the Potency read?
A: inconclusive: 1.41 µM [inhibitor, full curve, poor fit]

Q: `COc1cc(/C=C2\CCCc3c2nc2ccccc2c3C(=O)O)cc(Br)c1O` was tested. Which “FP activity change, negative = inhibition” value did it give?
A: inactive: 20.1%

Q: Which Potency does the source give for `Cc1ccc(OCC(=O)Nc2nnc(S(=O)(=O)N3CCCCCC3)s2)cc1` here?
A: inconclusive: 39.8 µM [inhibitor, single point]

Q: For `COc1ccc(CCN(Cc2cc3cccc(C)c3[nH]c2=O)C(=O)N2CCCC2)cc1OC`, which Potency is on record?
A: inconclusive: 3.16 µM [inhibitor, full curve]

Q: `CCn1c(/C=C2\C(=O)Nc3ccccc32)nc2ccccc2c1=O` was tested. Which Potency did it give?
A: inconclusive: 10 µM [inhibitor, partial curve]

Q: Which Potency does the source give for `Cc1oc2ccc(OCc3ccc(Br)cc3)cc2c1C(=O)O` here?
A: inconclusive: 28.2 µM [quencher, side channel, single point]

Q: With `COc1ccc(C(=O)Nc2ccc3c(c2)nc2n3CCSC2)cc1` as the molecule, how does the Potency read?
A: inconclusive: 31.6 µM [quencher, side channel, partial curve]

Q: How did the Potency turn out when `COc1ccc(NC(=O)c2cccnc2NCCc2ccccc2)cc1` was run?
A: inconclusive: 10 µM [quencher, side channel, single point]

Q: `Cc1cc(=O)oc2cc(Oc3ncccc3[N+](=O)[O-])ccc12` was tested. Which Potency did it give?
A: inconclusive: 35.5 µM [quencher, side channel, single point]

Q: How did the Potency turn out when `COc1ccc(S(=O)(=O)c2c(O)c3ccc(C(=O)Nc4ccccc4)cc3[nH]c2=O)cc1` was run?
A: inconclusive: 22.4 µM [quencher, side channel, single point]

Q: With `O=S(=O)(c1ccc(F)cc1)N1CCCN(Cc2c(F)cccc2F)CC1` as the molecule, how does the Potency read?
A: inconclusive: 28.2 µM [inhibitor, single point]

Q: Which Potency does the source give for `C(=N\Nc1nc2ccccc2[nH]1)/c1c[nH]c2ccccc12` here?
A: inconclusive: 10 µM [quencher, side channel, partial curve]

Q: How did the “FP activity change, negative = inhibition” value turn out when `CCOC(=O)N1CCN(Cc2ccc(O)c3ncccc23)CC1` was run?
A: inactive: -13.6%

Q: With `O=C(Cn1cnnn1)OCC(=O)c1ccc(Cl)s1` as the molecule, how does the Potency read?
A: inconclusive: 12.6 µM [quencher, side channel, partial curve]

Q: With `CC1=NN(c2ccc(C(=O)O)c(N)c2)C(=O)C1` as the molecule, how does the Potency read?
A: inconclusive: 25.1 µM [quencher, side channel, single point]

Q: `Nc1nc(-c2cccs2)c(-c2cccs2)s1` was tested. Which Potency did it give?
A: inconclusive: 28.2 µM [quencher, side channel, single point]

Q: `Cc1cc(Nc2ccccc2)nn1C(=O)c1ccc([N+](=O)[O-])cc1` was tested. Which Potency did it give?
A: inconclusive: 25.1 µM [quencher, side channel, partial curve]

Q: Which Potency does the source give for `COc1ccc(S(=O)(=O)N(C)CC(=O)Nc2ccc3c(c2)OCO3)cc1OC` here?
A: inconclusive: 39.8 µM [inhibitor, single point]

From PubChem BioAssay AID1768 (National Center for Advancing Translational Sciences (NCATS), 2009)
